Test results taken from PubChem BioAssay AID1030 (National Center for Advancing Translational Sciences (NCATS), 2008).
In all, about 220,000 compounds went through this assay and about 16,000 (7.3%) were called active. The inconclusive results got no clear call from the source; some entries with a clear call stand among them for comparison. Calls follow the shape of the dose curve; as a rule, active = well fitted inhibition curve with a large enough effect (not every such curve was filed as active); inconclusive = small, poorly fitted or top-dose-only effect, or another doubt; inactive = no such curve, though single readings can be large or run the other way. Potencies of inconclusive entries are left out as doubtful fits.

molecular target: Aldehyde dehydrogenase 1A1 (Homo sapiens) (UniProt P00352); assay: qHTS Assay for Inhibitors of Aldehyde Dehydrogenase 1 (ALDH1A1); details: Purified ALDH1A1, NADH fluorescence, propionaldehyde substrate; series mostly up to 75.3 µM
Potency is read from the fitted curve at half-maximal effect; tags tell the direction and shape of the fitted curve.

Chain of UniProt P00352 (P00352 whole entry, looked up): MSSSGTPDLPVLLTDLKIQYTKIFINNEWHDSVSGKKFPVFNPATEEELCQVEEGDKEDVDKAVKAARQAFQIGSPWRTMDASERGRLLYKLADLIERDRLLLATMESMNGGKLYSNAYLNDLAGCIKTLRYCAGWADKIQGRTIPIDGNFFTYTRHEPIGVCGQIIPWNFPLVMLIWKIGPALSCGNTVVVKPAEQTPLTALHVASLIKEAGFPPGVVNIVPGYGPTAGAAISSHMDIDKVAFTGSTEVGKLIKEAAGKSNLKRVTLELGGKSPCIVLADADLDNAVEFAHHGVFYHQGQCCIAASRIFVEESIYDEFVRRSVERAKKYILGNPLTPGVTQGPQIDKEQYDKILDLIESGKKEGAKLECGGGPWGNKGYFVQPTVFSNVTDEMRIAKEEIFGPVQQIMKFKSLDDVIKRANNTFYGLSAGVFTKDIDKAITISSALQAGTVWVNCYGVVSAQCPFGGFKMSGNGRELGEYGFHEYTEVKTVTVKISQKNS

Row | Compound | Potency
1 | O=C1C(C=NCC2CCCO2)=C(O)c2ccccc21 (centres undefined) | inconclusive [inhibitor, partial curve]
2 | COC(=O)CCc1nc2ccccc2nc1OC | inactive
3 | CCC(CO)Nc1nc(CN2CCCCC2)nc2scc(-c3ccccc3)c12 (centres undefined) | inconclusive [inhibitor, single point]
4 | Cc1nc2c3c(-c4ccccc4)c(-c4ccccc4)oc3ncn2n1 | inconclusive [inhibitor, full curve]
5 | O=C(CN(C(=O)c1cc2c(s1)CCC2)C1CCCC1)NCc1cccs1 | active: 15.8 µM
6 | CC(C)C1=C2OC(N)=C(C#N)C(C#N)=C2C(C)CC1 (centres undefined) | inconclusive [inhibitor, partial curve]
7 | O=C(NCCCn1ccnc1)c1ccc(Cl)cc1[N+](=O)[O-] | inactive
8 | COc1ccc(NC(=O)CCN2CCN(S(=O)(=O)c3ccc(C(C)C)cc3)CC2)cc1 | inconclusive [inhibitor, partial curve]
9 | CC(C)CN1CCC2(CC1)CCN(C(=O)c1cnccn1)CC2 | inactive
10 | CN(C)C(=S)Nc1ccc([N+](=O)[O-])cc1 | inconclusive [inhibitor, single point]
11 | CCOCCCNC(=S)NCCCNc1nc2ccc(C)cc2cc1C#N | inconclusive [inhibitor, single point]
12 | COc1c(C)cc(C(=O)C2CCCN(C(=O)c3cccc(F)c3)C2)cc1C (centres undefined) | inconclusive [inhibitor, single point]
13 | CCC(=O)Oc1c(C(=O)CC)cc2c(C)cc(=O)oc2c1C | inactive
14 | Nc1ncnc2c1c(-c1ccc(Oc3ccccc3)cc1)cn2C1CCCC1 | inconclusive [inhibitor, single point]
15 | OCCN1CCOCCN(CCO)CCOCC1 | inactive
16 | COc1ccc(-c2nc3ccccc3nc2-c2ccccc2)cc1 | inconclusive [inhibitor, partial curve]
17 | COc1ccccc1-n1cnc2c(c1=O)c1nc3ccccc3nc1n2CCc1ccccc1 | inconclusive [inhibitor, single point]
18 | CS(=O)(=O)N1N=C(c2ccc(Cl)cc2)CC1c1cccs1 (centres undefined) | inconclusive [inhibitor, full curve]
19 | Cc1cc2c(ncn2Cc2ccccc2)c(N)c1C | inactive
20 | CCCn1c(-c2ccc(F)cc2)nc2c(NCCN3CCOCC3)nc(C)nc21 | inactive
21 | CCOc1ccc(N2C(=O)/C(=C/c3ccc(C)o3)N(C)C2=S)cc1 | active: 7.94 µM
22 | O=C(CNCc1ccc(Cl)cc1)Nc1ccc2c(c1)OCCO2 | inconclusive [inhibitor, single point]
23 | COc1ccc(S(=O)(=O)C(C#N)c2nc3ccccc3nc2N2CCC(C)CC2)cc1 (centres undefined) | active: 17.8 µM
24 | O=C(O)/C=C\C(=O)Nc1ccccc1C(=O)NCc1ccccc1 | inconclusive [inhibitor, partial curve]
25 | CC(C)Oc1ccc(CCc2n[nH]c(=S)n2Cc2ccccc2)cc1 | inconclusive [inhibitor, partial curve]

Row | Compound | Potency
26 | CC(=O)Nc1ccccc1C | inconclusive [inhibitor, single point]
27 | O=c1c2cccnc2n(-c2ccccc2)n1Cc1ccc(Cl)cc1 | inconclusive [inhibitor, partial curve]
28 | CCOC(=O)c1c(C)[nH]c(C)c1C(=O)COC(=O)c1cc2ccccc2cc1O | inactive
29 | Cc1ccccc1NC(=O)C1C2CCC(O2)C1C(=O)O (centres undefined) | inconclusive [inhibitor, single point]
30 | COc1ccc(CCc2nnc(CCC(=O)N(C)Cc3ccncc3C)o2)cc1 | inconclusive [inhibitor, single point]
31 | O=C(COc1ccc(Cl)cc1)Nc1ccccc1C(=O)NCc1ccco1 | inactive
32 | O=C1C2CC=C(Cl)CC2C(=O)N1CN(Cc1ccco1)CN1C(=O)C2CC=C(Cl)CC2C1=O (centres undefined) | inconclusive [inhibitor, single point]
33 | O=C(Nc1cccc(S(=O)(=O)N2CCCC2)c1)c1ccc2c(=O)n3c(nc2c1)CCCCC3 | active: 3.55 µM
34 | Cc1noc(C)c1C(=O)N1CCC[C@@]2(CCN(c3ncccn3)C2)C1 | inactive
35 | C1CCC2(CC1)C1=C(CCCC1)Nc1nnnn12 | active: 28.2 µM
36 | CCn1nc(C(=O)OCC(=O)Nc2nc(-c3ccc(OC)cc3)cs2)c2ccccc2c1=O | inconclusive [inhibitor, single point]
37 | Cc1ccc(C(=O)N/C(=C\c2ccc(-c3ccc([N+](=O)[O-])cc3)o2)C(=O)NC2CCS(=O)(=O)C2)cc1 (centres undefined) | inactive
38 | COc1ccc(-n2cc(CNCCCn3ccnc3)c(-c3ccccc3Cl)n2)cc1 | inconclusive [inhibitor, single point]
39 | Brc1ccc(Oc2ncc(CN3CCN(c4ccccc4)CC3)s2)cc1 | inconclusive [inhibitor, single point]
40 | O=Cc1ccc(Cl)cc1 | inactive
41 | CCc1cccc2c(C(=O)COC(=O)/C=C/c3ccc(O)c(OC)c3)c[nH]c12 | inactive
42 | CC(C)Cc1nnc(NC(=O)CS(=O)(=O)Cc2ccccc2)s1 | inconclusive [inhibitor, partial curve]
43 | Cc1ccc(S(=O)(=O)N2CCCN(S(=O)(=O)c3ccc4ccccc4c3)CC2)cc1 | inactive
44 | O=C(Nc1ccccc1)N1CC[C@@]2(CCCN(C(=O)c3ccncc3)C2)C1 | inactive
45 | CC(C)c1ccc(C2CC(=O)N3CN(C)CSC3=C2C#N)cc1 (centres undefined) | active: 3.55 µM
46 | Cc1nn(Cc2ccccc2Cl)c(C)c1NC(=O)C1C2CCC(O2)C1C(=O)O (centres undefined) | inconclusive [inhibitor, single point]
47 | COc1ccc(C(=O)Nc2sc(C)c(C)c2CN2CCOCC2)cc1 | inconclusive [inhibitor, single point]
48 | O=c1c2c(nc3nc(COc4ccccc4)[nH]n13)CCC2 | inactive
49 | COc1ccc(N2CCN(c3cc(C)c4ccccc4n3)CC2)cc1 | inconclusive [inhibitor, single point]
